# Screen size: about 43,000 compounds; about 200 (0.47%) were called active. Another 12% or so got no clear call; they are omitted. Calls follow the shape of the dose curve; as a rule, active = well fitted cell-killing curve with a large enough effect; inconclusive = small, poorly fitted or top-dose-only effect, or effect the other way; inactive = flat fitted curve, though single readings scatter. Some of the results follow.
# Assay: Cell viability qHTS assay in S16 Pmp22-F2sN cells; also: nearly all actives have a fitted effect of over 65% in size
# Conditions: S16 Pmp22-F2sN Schwann cells viability, CellTiter-Glo, 24 h; series mostly up to 57.5 µM; activity change, negative = cytotoxicity: at the top concentration
# Outline: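 S16 Pmp22-F2sN Schwann cells (500-1,000/well) in phenol-red-free DMEM with 10% FBS received 23 nL compound by pin tool for 24 h at 37 °C. Viability was then read as CellTiter-Glo luminescence after 15 min at room temperature.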
# % is scaled to controls: 0 for no effect and ±100 for the full control effect.
row,SMILES,"activity change, negative = cytotoxicity"
1,Cc1ccc(Cn2c(=O)c3cccnc3n(Cc3ccc(F)cc3)c2=O)cc1,inactive: -1.53%
2,CCOC(=O)c1c(NC(=O)c2cc3ccccc3c(=O)o2)sc2c1CCCC2,inactive: 1.2%
3,COc1ccc(OC)c(NC(=O)CCc2c(C)nc3c(-c4ccccc4)c(C)nn3c2C)c1,inactive: -16.9%
4,CCSC1=NC2(CCN(C(=O)NC3CCCCC3)CC2)N=C1c1ccc(C)c(C)c1,inactive: -16.5%
5,Cc1noc(C)c1S(=O)(=O)NCCc1csc2nc(-c3ccc(F)cc3)nn12,inactive: -11.1%
6,Cc1ccc(NC(=O)[C@H](Cc2ccccc2)N2Cc3ccccc3C2=O)cc1,inactive: -15.8%
7,Cc1ccc(S(=O)(=O)c2cn(CC(=O)Nc3ccc4c(c3)OCO4)c3ccc(F)cc3c2=O)cc1,inactive: -3.45%
8,Cc1cccc(CSCCNC(=O)CN(c2ccccc2)S(=O)(=O)N(C)C)c1,inactive: 3.71%
9,CCOc1ccc(CC(=O)NC2CC(=O)N(c3ccc4c(c3)OCCO4)C2)cc1 (configuration not stated),inactive: 1.9%
10,CCN(c1ccccc1)S(=O)(=O)c1nnc(NC(=O)COc2ccccc2F)s1,inactive: -3.52%
11,CC(=O)Nc1ccccc1-c1nc2ccccc2n(C(C)C(=O)c2ccc(C)c(C)c2)c1=O (configuration not stated),inactive: 5.83%
12,CC(=O)Nc1ccc(S(=O)(=O)Nc2ccc3c(c2)n(C)c(=O)n3C)c(C)c1,inactive: -10.3%
13,Cc1cc(C)n(-c2nc3cc(Cl)c(Cl)cc3nc2Nc2c(C)cccc2C)n1,inactive: 2%
14,COc1ccc(CNC(=O)C(=O)NCC(c2cccnc2)N2CCN(c3ccccc3F)CC2)cc1 (configuration not stated),inactive: -27.9%
15,Cc1ccc(Nc2cc(-c3ccccc3)nc(C)n2)cc1,inactive: 0.306%
16,COc1ccc(-c2[nH]ncc2C(=O)NCc2ccccc2OC)cc1,inactive: 9.35%
17,Cc1ccc(NC(=O)CN(C)S(=O)(=O)c2cccc3nsnc23)c(C)c1,inactive: -16.8%
18,Cc1ccc(C)c(NC(=O)Cn2cnc3nc4c(cc3c2=O)CCCC4)c1,inactive: -10.8%
19,CCOC(=O)c1cccc(NC(=O)c2ccc3snnc3c2)c1,inactive: -2.42%
20,COc1ccccc1C(=O)Nc1nc(-c2ccc(Br)cc2)ns1,inactive: -3.26%
21,Cc1nc2ccn(Cc3cccnc3)c(=O)c2cc1C(=O)N1CCN(c2ccccc2)CC1,inactive: 12.5%
22,CCc1ccc(-n2c(N3CCN(c4cccc(C)c4C)CC3)nc3ccccc3c2=O)cc1,inactive: 11.1%
23,COCCNC(=O)CSc1nnc(NC(=O)Nc2ccc(C)cc2)s1,inactive: 6.27%
24,Cc1ccc(Nc2nc(N)nc(N)c2S(=O)(=O)c2ccccc2)cc1,inactive: 12.5%
25,COC(=O)c1sccc1S(=O)(=O)N(CC(=O)NCc1ccccc1)c1ccc(C)cc1,inactive: 22.3%

row,SMILES,"activity change, negative = cytotoxicity"
1,Cc1cc(C)cc(NC(=O)Nc2cccs2)c1,inactive: 4.5%
2,CCOC(=O)CN1C(C(=O)c2ccccc2)=C(OC(=O)c2ccccc2)c2ccccc2S1(=O)=O,inactive: -6.01%
3,Cc1ccc(NC(=O)C2CCCN(S(=O)(=O)c3ccc(F)cc3)C2)cc1 (configuration not stated),inactive: -1.75%
4,CCCCOc1ccc(C(=O)Nc2onc3c2CCCC3)cc1,inactive: -4.81%
5,COC(=O)C1CCN(C(c2ccccc2Cl)c2sc3nc(-c4ccco4)nn3c2O)CC1 (configuration not stated),inactive: 9.49%
6,O=C(NCCc1ccccc1)c1cc2sccc2n1Cc1ccc(F)cc1,inactive: 3.1%
7,CNC(=O)c1c(NC(=O)c2ccc(S(=O)(=O)N3CCCC(C)C3)cc2)sc2c1CCC2 (configuration not stated),inactive: -7.45%
8,COC(=O)c1cccc(CN2C(=O)SC(Nc3ccc(Br)cc3)C2=O)c1 (configuration not stated),inactive: 6.38%
9,CSc1cccc(NC(=O)C(c2ccccc2)N2Cc3ccccc3C2=O)c1 (configuration not stated),inactive: 0.577%
10,Cc1ccc(NC(=O)CSc2nc3ccc(NC(=O)c4ccco4)cc3s2)c(C)c1,inactive: -11.2%
11,COc1cc(C(=O)NCCS(=O)(=O)N2CCN(c3ccccc3)CC2)cc(OC)c1OC,inactive: 4.31%
12,Cn1cc(S(=O)(=O)c2ccc(Cl)cc2)c(=O)c2cc(F)c(N3CCOCC3)cc21,inactive: 4.83%
13,COc1ccc(-c2cc3nc(C)c(CCC(=O)N4CCN(c5cc(C)ccc5C)CC4)c(C)n3n2)c(OC)c1,inactive: 20.6%
14,CC(C)(C)c1ccc(OCC(=O)NC(Cc2c[nH]c3ccccc23)C(=O)O)cc1 (configuration not stated),inactive: -1.95%
15,CCCCn1nc(NC(=O)c2cccc(Cl)c2)c2cc3ccc(C)cc3nc21,inactive: -2.39%
16,CC(=O)Nc1ccc(NS(=O)(=O)c2cc3c4c(c2)CC(=O)N4CCC3)cc1,inactive: -14.8%
17,COc1ccc(N2CCN(S(=O)(=O)CCNC(=O)c3ccc(OC(C)C)cc3)CC2)cc1,inactive: -1.16%
18,COc1ccccc1/C=C/c1nc(C#N)c(N2CCN(c3ccccc3)CC2)o1,inactive: 19.7%
19,CN(C(=O)CSc1nc2ccc(NC(=O)COc3ccccc3Cl)cc2s1)c1ccccc1,inactive: 14.2%
20,Cc1ccc(Nc2c(-c3ccccc3O)nc3cc(C)ccn23)cc1,inactive: -22.8%
21,CCOc1ccc(NC(=O)CN2CCN(CC(=O)Nc3ccc(OC)cc3)CC2)cc1,inactive: -2.97%
22,CCC(=O)N1CCc2cc(S(=O)(=O)NCCC(=O)Nc3ccc(OC)c(OC)c3)ccc21,inactive: -5.83%
23,Cc1cccc(N2CCN(c3ncnc4c3c(-c3ccccc3)cn4-c3ccccc3)CC2C)c1 (configuration not stated),inactive: 6.6%
24,COc1ccc(NC(=O)CSc2nnc3c(C)cc4ccccc4n23)cc1,inactive: 11.1%
25,COc1cc(-c2nnn(CC(=O)NCc3ccccc3)n2)cc(OC)c1OC,inactive: -5.44%

row,SMILES,"activity change, negative = cytotoxicity"
1,Cc1cnc2c(c1SCC(=O)NCc1ccc(F)cc1)c(=O)n(C)c(=O)n2C,inactive: -4.43%
2,Cc1ccc(N(CC(=O)N2CCN(c3cc(Cl)ccc3C)CC2)S(=O)(=O)c2c(C)noc2C)cc1,inactive: -7.65%
3,Clc1ccc(-c2nc3ccccn3c2Nc2ccc3c(c2)OCCO3)s1,inactive: -14.5%
4,CCc1ccc(N2CCn3c2nc2c3c(=O)n(CCc3ccccc3)c(=O)n2C)cc1,inactive: 5.2%
5,Cc1cccc(Cn2c(=O)n(-c3ccc(Cl)c(Cl)c3)c(=O)c3c(C)c(C)sc32)c1,inactive: 16.3%
6,Cc1ccc2nc(NC(=O)CSc3nccn3Cc3ccccc3)sc2c1,inactive: 0.603%
7,CCOCCc1nnc(NC(=O)C(=O)c2cc(C)n(-c3cccc(Cl)c3)c2C)s1,inactive: 10.4%
8,Cc1ccc(C)c(N2CCN(C(c3ccc(F)cc3)c3nnc(-c4ccccc4)o3)CC2)c1 (configuration not stated),inactive: 2.65%
9,CCN(Cc1ccccc1)C(=O)Cn1c(=O)oc2cc(S(=O)(=O)N3CCCCCC3)ccc21,inactive: 3.26%
10,Cc1ccccc1CSc1cn(CC(=O)N2CCCC2)c2ccccc12,inactive: -2.37%
11,COc1ccc(NC(=O)c2sc3nc(C)c(C(=O)Nc4ccc(C)cc4C)c(-c4cccs4)c3c2N)cc1,inactive: -7.42%
12,CCOc1ccc(NC(=O)C(=O)NCCc2csc(-c3ccc(C)cc3)n2)cc1,inactive: 1.53%
13,Cc1noc2ncnc(NCc3ccccc3Cl)c12,inactive: -24.7%
14,COc1ccc(-n2c(=O)c3c(c4cc(OC)ccc4n3C)n(C)c2=O)cc1,inactive: 1.09%
15,CCOc1ccc(NC(=O)Cn2cc(C(=O)c3ccc(CC)cc3)c(=O)c3ccc(C)nc32)cc1,inactive: 3.05%
16,CC1=C(c2ccc(C)c(C)c2)S(=O)(=O)N=C1N1CCC(C(=O)NCc2ccc(Cl)cc2)CC1,inactive: -2.41%
17,CCN(CC)S(=O)(=O)c1ccc2c(c1)N(CC(=O)Nc1c(C)cc(C)cc1C)C(=O)C1CCCN21 (configuration not stated),inactive: 3.15%
18,COc1ccc(NC(=O)CSc2nccn2Cc2ccco2)cc1OC,inactive: -7.65%
19,O=C(COc1ccccc1F)Nc1ccc(Cl)c(-c2nc3ccccc3[nH]2)c1,inactive: 6.89%
20,Cc1ccc(-n2c(=O)c3cccnc3n2CC(=O)NCc2ccc(F)cc2)cc1C,inactive: 20.1%
21,Cc1ccc(CNC(=O)CN2CCCN(Cc3ccc(F)cc3)S2(=O)=O)cc1,inactive: 6.83%
22,O=c1[nH]c2ccc(NCc3ccccc3F)cc2[nH]1,inactive: -21.4%
23,O=C(CCc1ccccc1)NCc1ccc2c(c1)CCN2C(=O)c1ccc(Cl)cc1,inactive: -11.1%
24,CCOC(=O)c1cc(NC(=O)c2ccc(OC)cc2)c(=O)n2c1oc1ccc(Cl)cc12,inactive: 22.5%
25,CCn1c(CNC(=O)C23CC4CC(CC(C4)C2)C3)nnc1SCC(=O)Nc1ccc(F)cc1,inactive: -3.74%

row,SMILES,"activity change, negative = cytotoxicity"
1,CC1Cc2ccccc2N1C(=O)CSc1nnc(-c2cccc(Cl)c2)o1 (configuration not stated),inactive: 1.4%
2,CCc1cccc(NC(=O)CC2Oc3ccc(C)cc3NC2=O)c1 (configuration not stated),inactive: 9.26%
3,Cc1ccc(NC(=O)CC2Sc3ccccc3NC2=O)c(Br)c1 (configuration not stated),inactive: 2.1%
4,CCCCc1nc2ccccc2n1CC(=O)N(COCC)c1c(C)cccc1CC,inactive: -16.8%
5,Cc1cc(C)cc(NC(=O)C2CCN(S(=O)(=O)c3ccc4c(c3)oc(=O)n4C)CC2)c1,inactive: 5.17%
6,CCOC(=O)c1ccc(NC(=O)CSc2nc3c([nH]c4ccccc43)c(=O)n2C)cc1,inactive: -3.49%
7,Cc1cn2c(=O)cc(COc3ccccc3NC(=O)c3ccc(Cl)cc3)nc2s1,inactive: -1.35%
8,Cc1ccccc1-c1noc(-c2cc(-c3ccc(F)cc3)n[nH]2)n1,inactive: -22.8%
9,Cc1ccc(NC(=O)C2CCC(CNS(=O)(=O)c3ccc4c(c3)CCCC(=O)N4)CC2)c(C)c1 (configuration not stated),inactive: -5.3%
10,COc1cc(NC(=O)c2ccc(-n3cnc4cccnc43)cc2)cc(OC)c1,inactive: 3.45%
11,Cc1ccc(S(=O)(=O)N(CC(=O)Nc2ccc3c(c2)OCO3)c2ccc(C)c(Cl)c2)cc1,inactive: 0.612%
12,Cc1cc(C)c(NC(=O)Cn2nnc(-c3nc(-c4ccccc4)no3)c2N)c(C)c1,inactive: 2.31%
13,Cc1cc(C)c2c(n1)SCCN2C(=O)Nc1ccc(C(=O)Nc2ccc(C(C)C)cc2)cc1,inactive: 15.5%
14,CCN(CC)c1ccc2cc(-c3nc(-c4cc(OC)c(OC)c(OC)c4)no3)c(=O)oc2c1,inactive: 2.4%
15,COc1ccccc1NC(=O)C1CCN(c2cnccn2)CC1,inactive: 2.42%
16,CSc1ncc(C(=O)Nc2cc(Cl)ccc2C)c(-c2ccccc2)n1,inactive: 12.2%
17,COC(=O)c1ccccc1NC(=O)Cn1c(=O)n(CCCC(=O)NCc2ccccc2OC)c(=O)c2ccccc21,inactive: 4.07%
18,Cc1ccc(C)c(NC(=O)C(c2ccccc2)N2Cc3ccccc3C2=O)c1 (configuration not stated),inactive: -16.8%
19,CCOc1ccc(-n2nc(CO)c(C(=O)NCc3cccc(OC)c3)n2)cc1,inactive: -4.77%
20,CC(=O)c1ccc(NC(=O)c2nc3nc(C)cc(C(F)F)n3n2)cc1,inactive: -9.88%
21,Cc1cc(C)cc(-n2ccn(CC(=O)Nc3ccccc3F)c(=O)c2=O)c1,inactive: 7.62%
22,O=C(CCC1N=C2c3ccccc3N=C(SCc3ccc(F)cc3)N2C1=O)NC1CCCCC1 (configuration not stated),inactive: 1.16%

# Reference: PubChem BioAssay AID1508642 (National Center for Advancing Translational Sciences (NCATS), 2021)
